Experimental data: patent publication US20250092146A1 (ABILITA BIO, published 2025)
Residue numbers refer to the chain shown, from its start. Names and notes keep the numbering of the source. Blank lines part the entries; values can stand above or below the binder they belong to.

Key:
human CCR8 (hCCR8) [1] = biological target: T1, human CCR8 (hCCR8) (human, UniProt P51685 1-355); test: cell-based or functional assay
human CCR8 (hCCR8) [2] = biological target: T1, human CCR8 (hCCR8); test: flow cytometry on HEK293-hCCR8 cells, VHH-Fc; normalized to wild type VHH-2-Fc
T1 sequence (P51685 whole entry, the tested form may be a part): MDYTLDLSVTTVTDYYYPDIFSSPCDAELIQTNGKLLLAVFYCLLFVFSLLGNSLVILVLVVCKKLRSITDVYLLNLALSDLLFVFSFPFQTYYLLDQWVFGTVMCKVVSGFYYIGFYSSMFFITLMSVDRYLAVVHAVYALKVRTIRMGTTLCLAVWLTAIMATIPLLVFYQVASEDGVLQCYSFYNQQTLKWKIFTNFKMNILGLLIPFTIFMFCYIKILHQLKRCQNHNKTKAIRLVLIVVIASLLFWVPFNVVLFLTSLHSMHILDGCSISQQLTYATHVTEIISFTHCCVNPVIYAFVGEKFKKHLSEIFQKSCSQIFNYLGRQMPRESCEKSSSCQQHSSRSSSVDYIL

human CCR8 (hCCR8) [3] = biological target: T1, human CCR8 (hCCR8); test: flow cytometry on HuT-78 cells, VHH-Fc fusion; normalized to VHH-2
human CCR8 (hCCR8) [4] = biological target: T1, human CCR8 (hCCR8); test: flow cytometry on HEK293-hCCR8 cells, VHH-Fc
human CCR8 (hCCR8) [5] = biological target: T1, human CCR8 (hCCR8); test: flow cytometry on HEK293-hCCR8 cells
human CCR8 (hCCR8) [6] = biological target: T1, human CCR8 (hCCR8); test: flow cytometry on HEK293-hCCR8 cells; normalized to parental clone
human CCR8 (hCCR8) [7] = biological target: T1, human CCR8 (hCCR8); test: flow cytometry on HEK293-hCCR8 cells; normalized to VHH-2-Fc
human CCR8 (hCCR8) [8] = biological target: T1, human CCR8 (hCCR8); test: flow cytometry on HuT-78 cells, VHH-Fc fusion
human CCR8 (hCCR8) [9] = biological target: T1, human CCR8 (hCCR8); test: cell-based or functional assay; remark: listed apart in the source
human CCR8 (hCCR8) [10] = biological target: T1, human CCR8 (hCCR8); test: cell-based or functional assay; remark: listed apart in the source
human CCR8 (hCCR8) [11] = biological target: T1, human CCR8 (hCCR8); test: flow cytometry on HuT-78 cells, VHH-Fc fusion; normalized to VHH-1
human CCR8 (hCCR8) [12] = biological target: T1, human CCR8 (hCCR8); test: flow cytometry on HEK293-hCCR8 cells, VHH-Fc; normalized to wild type VHH-1-Fc
human CCR8 (hCCR8) [13] = biological target: T1, human CCR8 (hCCR8); test: flow cytometry on HEK293-hCCR8 cells; normalized to VHH-1-Fc
human CCR8 (hCCR8) [14] = biological target: T1, human CCR8 (hCCR8); test: flow cytometry on HEK293-hCCR8 cells, VHH-Fc; remark: listed apart in the source

B2: VHH-2.3-Fc (Fc fusion)
chain: EVQLVESGGGLVQPGGSLRLSCAVSGSTSTINRFAWYRQAPGKGRELVAATSSRTSPNYADSVKGRFTFSRDNSKNTVYLQMNSLRAEDTAVYYCQARMAMGSSQVVYWGQGTTVTVSS[human IgG1 Fc not given here]
notes: Humanized VHH-2, version 3, fused directly to the short hinge of human IgG1 Fc
Normalized Bmax (%) (human CCR8 (hCCR8) [3]): 88.8%
Bmax % (human CCR8 (hCCR8) [6]): 94.4%
EC50 (human CCR8 (hCCR8) [8]): 1.19 nM

B6: VHH-2.2-Fc (Fc fusion)
chain: B2 chain with R45L, L47W
notes: Humanized VHH-2, version 2, fused directly to the short hinge of human IgG1 Fc
Bmax % (human CCR8 (hCCR8) [6]): 78.7%

B7: VHH-1.3-17-Fc (Fc fusion)
chain: EVQLVESGGGLVQPGGSLRLSCAVSGSTSSIVRIGWYRQAPGKGRELVAHFSSGGGTNYADSVKGRFTISGDKSKNTMYLQMNSLRAEDTAVYYCSARILLGTSRVDYWGQGTTVTVSS[human IgG1 Fc not given here]
notes: Against VHH-1.3 (IMGT): R37V, R55H, R108I, N83K
EC50 (nM), ADCC reporter assay, human FcγRIIIa effector cells, HuT-78 target cells (human CCR8 (hCCR8) [10]): 0.24 nM
Fold Induction, ADCC reporter assay, human FcγRIIIa effector cells, HuT-78 target cells (human CCR8 (hCCR8) [10]): 3.92 fold
Normalized Bmax (%) (human CCR8 (hCCR8) [11]): 72.8%
EC50 (human CCR8 (hCCR8) [8]): 0.67 nM

B10: VHH-1.3-19-Fc (Fc fusion)
chain: B7 chain with V32R, R33G, I99R, T114Q
notes: Against VHH-1.3 (IMGT): A25V, R38G, R55H, N83K
EC50 (nM), ADCC reporter assay, human FcγRIIIa effector cells, HuT-78 target cells (human CCR8 (hCCR8) [10]): 0.11 nM
Fold Induction, ADCC reporter assay, human FcγRIIIa effector cells, HuT-78 target cells (human CCR8 (hCCR8) [10]): 5.06 fold
IC50 (nM), inhibition in β-arrestin assay (CCL1 at EC80) (human CCR8 (hCCR8) [9]): 0.59 nM
Normalized Bmax (%) (human CCR8 (hCCR8) [11]): 130%
EC50 (human CCR8 (hCCR8) [8]): 0.45 nM

B12: VHH-1-Fc (Fc fusion)
chain: QVQLQESGGGLVQAGGSLRLSCVASGSTSSIRRIGWYRQAPGKQRELVARFSSGGGTNYADFVKGRFTISGDNAKNTMYLQMNSLKPEDTAVYYCSARRLLGTSRVDYWGQGTQVTVSS[human IgG1 Fc not given here]
notes: Bivalent; also called VHH-1 (as Fc fusion)
IC50, inhibition of CCL1-induced β-arrestin recruitment (DiscoverX PathHunter eXpress), CCL1 at EC80 (human CCR8 (hCCR8) [1]): < 1 nM
% Bmax (human CCR8 (hCCR8) [12]): 100%
Bmax % (human CCR8 (hCCR8) [13]): 100%
IC50 (nM), inhibition in β-arrestin assay (CCL1 at EC80) (human CCR8 (hCCR8) [9]): 0.34 nM
EC50 (human CCR8 (hCCR8) [5]): 2.97 nM
Bmax % (human CCR8 (hCCR8) [6]): 100%
Normalized Bmax (%) (human CCR8 (hCCR8) [11]): 100%
EC50 (human CCR8 (hCCR8) [8]): 2.56 nM
EC50 (human CCR8 (hCCR8) [14]): 1.73 nM

B15: VHH-1.3-Fc (Fc fusion)
chain: B7 chain with V24A, V32R, H50R, K73N, I99R
notes: Humanized VHH-1, version 3, fused directly to the short hinge of human IgG1 Fc
IC50 (nM), inhibition in β-arrestin assay (CCL1 at EC80) (human CCR8 (hCCR8) [9]): 0.26 nM
Bmax % (human CCR8 (hCCR8) [6]): 116%
Normalized Bmax (%) (human CCR8 (hCCR8) [11]): 88.6%
EC50 (human CCR8 (hCCR8) [8]): 5.46 nM

B17: VHH-11-Fc (Fc fusion)
chain: B12 chain with S52T, D107G
Bmax % (human CCR8 (hCCR8) [13]): 63.5%
EC50 (human CCR8 (hCCR8) [5]): 1.82 nM

B19: VHH-12-Fc (Fc fusion)
chain: B12 chain with S52T, Y108S
Bmax % (human CCR8 (hCCR8) [13]): 91.8%
EC50 (human CCR8 (hCCR8) [5]): 1.72 nM

B20: VHH-2-Fc-DE (Fc fusion)
chain: QVQLQESGGGLVQAGGSLRLTCAVSGSTSTINRFAWYRQAPGKQRELVAATSSRTSPNYADSVKGRFRFSRDNARSAVYLQMDNLRPEDTAVYFCQARMAMGSSQVVYWGLGTQVTVSS[human IgG1 Fc with changes not given here]
EC50, ADCC reporter assay (human FcγRIIIa V158 NFAT-luciferase Jurkat effector cells, HuT-78 target cells) (human CCR8 (hCCR8) [1]): 7.9 pM

The remaining lines, values ahead:

IC50, inhibition of CCL1-induced β-arrestin recruitment (DiscoverX PathHunter eXpress), CCL1 at EC80 (human CCR8 (hCCR8) [1]): < 1 nM
% Bmax (human CCR8 (hCCR8) [2]): 100%
Normalized Bmax (%) (human CCR8 (hCCR8) [3]): 100%
EC50 (human CCR8 (hCCR8) [4]): 1.3 nM
EC50 (human CCR8 (hCCR8) [5]): 1.24 nM
Bmax % (human CCR8 (hCCR8) [6]): 100%
Bmax % (human CCR8 (hCCR8) [7]): 100%
EC50 (human CCR8 (hCCR8) [8]): 0.24 nM
B1: VHH-2-Fc (Fc fusion)
chain: QVQLQESGGGLVQAGGSLRLTCAVSGSTSTINRFAWYRQAPGKQRELVAATSSRTSPNYADSVKGRFRFSRDNARSAVYLQMDNLRPEDTAVYFCQARMAMGSSQVVYWGLGTQVTVSS[human IgG1 Fc not given here]
notes: Bivalent; also called VHH-2 (as Fc fusion)

Normalized Bmax (%) (human CCR8 (hCCR8) [3]): 132%
IC50 (nM), inhibition in β-arrestin assay (CCL1 at EC80) (human CCR8 (hCCR8) [9]): 0.11 nM
EC50 (human CCR8 (hCCR8) [8]): 0.12 nM
B3: VHH-2.3-2-Fc (Fc fusion)
chain: B2 chain with D72G, M99K
notes: Against VHH-2.3 (IMGT): D81G, M108K

Normalized Bmax (%) (human CCR8 (hCCR8) [3]): 83.3%
EC50 (human CCR8 (hCCR8) [8]): 1.7 nM
B4: VHH-2.3-3-Fc (Fc fusion)
chain: B2 chain with P57L
notes: Against VHH-2.3 (IMGT): P65L

Normalized Bmax (%) (human CCR8 (hCCR8) [3]): 118%
EC50 (human CCR8 (hCCR8) [8]): 0.23 nM
B5: VHH-2.3-1-Fc (Fc fusion)
chain: B2 chain with D72G
notes: Against VHH-2.3 (IMGT): D81G

EC50 (nM), ADCC reporter assay, human FcγRIIIa effector cells, HuT-78 target cells (human CCR8 (hCCR8) [10]): 0.19 nM
Fold Induction, ADCC reporter assay, human FcγRIIIa effector cells, HuT-78 target cells (human CCR8 (hCCR8) [10]): 6.68 fold
Normalized Bmax (%) (human CCR8 (hCCR8) [11]): 134%
EC50 (human CCR8 (hCCR8) [8]): 1.62 nM
B8: VHH-1.3-21-Fc (Fc fusion)
chain: B7 chain with V32R, R33G, H50R, S52I, G71A, K73N, I99R, T114Q
notes: Against VHH-1.3 (IMGT): A25V, R38G, S57I, G81A

EC50 (nM), ADCC reporter assay, human FcγRIIIa effector cells, HuT-78 target cells (human CCR8 (hCCR8) [10]): 0.65 nM
Fold Induction, ADCC reporter assay, human FcγRIIIa effector cells, HuT-78 target cells (human CCR8 (hCCR8) [10]): 3.98 fold
Normalized Bmax (%) (human CCR8 (hCCR8) [11]): 108%
EC50 (human CCR8 (hCCR8) [8]): 0.49 nM
B9: VHH-1.3-20-Fc (Fc fusion)
chain: B7 chain with V32R, R33G, H50R, S52I, K73N, T114Q
notes: Against VHH-1.3 (IMGT): A25V, R38G, S57I, R108I

EC50, ADCC reporter assay (human FcγRIIIa V158 NFAT-luciferase Jurkat effector cells, HuT-78 target cells) (human CCR8 (hCCR8) [1]): 3.7 pM
B11: VHH-1-Fc-DE (Fc fusion)
chain: QVQLQESGGGLVQAGGSLRLSCVASGSTSSIRRIGWYRQAPGKQRELVARFSSGGGTNYADFVKGRFTISGDNAKNTMYLQMNSLKPEDTAVYYCSARRLLGTSRVDYWGQGTQVTVSS[human IgG1 Fc with changes not given here]

Bmax % (human CCR8 (hCCR8) [13]): 99.7%
EC50 (human CCR8 (hCCR8) [5]): 4.19 nM
B13: VHH-8-Fc (Fc fusion)
chain: B12 chain with G56S, T103L

Bmax % (human CCR8 (hCCR8) [13]): 76.4%
EC50 (human CCR8 (hCCR8) [5]): 1.44 nM
B14: VHH-10-Fc (Fc fusion)
chain: B12 chain with G56S, D107N

Bmax % (human CCR8 (hCCR8) [6]): 119%
B16: VHH-1.2-Fc (Fc fusion)
chain: B7 chain with V24A, V32R, R45L, L47W, H50R, K73N, I99R
notes: Humanized VHH-1, version 2, fused directly to the short hinge of human IgG1 Fc

Bmax % (human CCR8 (hCCR8) [13]): 71.1%
EC50 (human CCR8 (hCCR8) [5]): 4.35 nM
B18: VHH-9-Fc (Fc fusion)
chain: B12 chain with G56S, V106Y
